According to PubChem BioAssay AID743279 (National Center for Advancing Translational Sciences (NCATS), 2014):
The whole screen tested about 360,000 compounds, of which about 17,000 (4.7%) were called active. This list was built around the results that the source calls inconclusive (neither active nor inactive); the mix of calls is not that of the screen. Rule as the data show it: active = activity change below about -50%; inconclusive = mostly about -30% to -49%; inactive = weaker than that.

Assay: qHTS for Inhibitors of Inflammasome Signaling: IL-1-beta AlphaLISA Primary Screen
Conditions: THP-1 LPS/ATP IL-1B secretion, 16 h; at 57.5 µM, hits give low values
Outline: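 THP-1 cells pretreated 1 hr with compounds (up to 57.5 uM final), then stimulated with LPS (250 ng/mL final) plus ATP (1.25 mM final); secreted IL-1B measured by AlphaLISA after 16 hr, decreased signal indicating inhibition.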
% is scaled to controls: 0 for no effect and ±100 for the full control effect.

Row | SMILES | activity change
1 | CCOC(=O)c1c(NC(C)=O)sc2c1CCC(C=O)=C2Sc1ccccc1 | active: -99.9%
2 | COc1ccc(-c2cnc3c(NC=O)cc(-c4ccc(C(=O)N5CCOCC5)cc4)cn23)cc1OC | inconclusive: -38.4%
3 | Cc1cc(C)c2cc(CN(Cc3cccnc3)C(=O)c3ccc(F)cc3)c(Cl)nc2c1 | inconclusive: -33.8%
4 | CCCCOc1ccc(C(=O)CCN2CCOCC2)cc1 | active: -104%
5 | COc1ccc(Cl)cc1NC(=O)CN(C(=O)c1ccco1)C1CCCCC1 | inconclusive: -30.2%
6 | CCCCC(=O)NC(=S)Nc1cccc(Cl)c1N1CCCCC1 | inconclusive: -47.2%
7 | CCOc1ccc2ccccc2c1/C=N/NC(=O)c1cc(C)[nH]n1 | inconclusive: -38.5%
8 | Cc1ccc(N2CCN(C(=O)Nc3cccc([N+](=O)[O-])c3)CC2C)cc1 (stereo unspecified) | active: -70.8%
9 | O=C(Nc1nc2c(cc3c4c(cccc42)CC3)s1)c1ccccc1Cl | inconclusive: -36.7%
10 | CCOC(=O)C1CCCN(CC(=O)Nc2cccc(C(C)=O)c2)C1 (stereo unspecified) | inactive: -3.47%
11 | CCC(C)(C)C(=O)Nc1cc([N+](=O)[O-])ccc1F | inactive: -13.5%
12 | CCCN(CC1CC1)C(=O)CSc1ncnc2sc(C)c(C)c12 | inconclusive: -40.1%
13 | O=C(Nc1ccc(N2CCN(C(=O)c3cccs3)CC2)cc1)c1ccc(Br)o1 | inconclusive: -31.1%
14 | O=C(Nc1cc(-c2nc3ncccc3o2)ccc1Cl)c1ccc([N+](=O)[O-])o1 | inactive: -23.1%
15 | CCCCN(CC)CCCNC(=O)c1cc2c(=O)n(C)c3ccccc3c2n1C | active: -73%
16 | COc1ccc2c(c1OC)c(=O)n1c3ccc(OC(C)C(=O)NCCN4CCOCC4)cc3c3ccnc2c31 (stereo unspecified) | inconclusive: -39.3%
17 | CCCn1nc([N+](=O)[O-])c(C(C#N)c2nc3ccccc3o2)c(Cl)c1=O (stereo unspecified) | active: -82%
18 | O=C(CSc1ncnc2c1cnn2-c1ccccc1)Nc1ccccc1 | active: -58.3%
19 | COc1cc(/C=N/NC(=O)COc2ccc([N+](=O)[O-])cc2)ccc1OCC(=O)N1CCOCC1 | inactive: -8.98%
20 | CC(C)(O)C#Cc1ccc([C@@H]2C[C@H]3CN(c4ccccc4)C(=O)[C@]34CCCN24)s1 | active: -71.6%
21 | CCOCC(=O)Nc1ccc(-c2cn3cccnc3n2)cc1 | inactive: 24.7%
22 | COc1ccc(CNCC2COc3ccccc3O2)cc1 (stereo unspecified) | inconclusive: -32.3%

Row | SMILES | activity change
23 | Nn1c(CN2CCCCC2)nc2ccccc2c1=O | inactive: 17.3%
24 | C[C@@H]1CN([C@H](C)CO)S(=O)(=O)c2ccc(C#Cc3cccc(F)c3)cc2O[C@@H]1CN(C)C(=O)CN1CCOCC1 | inconclusive: -33%
25 | CC1CCc2sc3ncnc(N4CCN(CCO)CC4)c3c2C1 (stereo unspecified) | inconclusive: -45.2%
26 | CCOC(=O)c1ccc(S(=O)(=O)NCC(c2ccc(N(C)C)cc2)c2c[nH]c3ccccc23)cc1 (stereo unspecified) | inactive: 3.41%
27 | N#CC1=CN(Cc2ccccc2)C=C(/C=N/Nc2ccccc2)C1 | active: -79.6%
28 | C[C@H](CO)N1C[C@H](C)[C@@H](CN(C)C)Oc2c(NS(=O)(=O)c3cccs3)cccc2C1=O | inactive: 2.11%
29 | COc1ccc(C2=NN(S(C)(=O)=O)C(c3cccs3)C2)cc1 (stereo unspecified) | inconclusive: -46.1%
30 | O=S(=O)(c1ccc(N=C2NN=C(c3cc(F)ccc3F)CS2)cc1)N1CCOCC1 | active: -76.2%
31 | Cn1c(Cl)cnc1C1CC(=O)c2cc(Cl)ccc2O1 (stereo unspecified) | active: -95.1%
32 | CS(=O)(=O)N1c2ccccc2[C@@]2(Br)C[C@H]3C(=O)N[C@@H](Cc4ccccc4)C(=O)N3[C@@H]12 | inactive: 24.8%
33 | COc1ccc(-c2ccnc(SCC(=O)N3CCN(c4ccccc4)CC3)n2)cc1 | inactive: 7.79%
34 | CCOC(=O)N1CCN(C(=S)NC(=O)c2ccc(Br)cc2)CC1 | inconclusive: -31.7%
35 | COc1ccc(C(=O)Nc2nc3ccccc3s2)cc1 | inactive: -11.5%
36 | Cc1nn(C)c(N)c1C(O)(c1nccn1C)C(F)(F)F (stereo unspecified) | inactive: 9.5%
37 | CCOC(=O)c1cnn(-c2ccc([N+](=O)[O-])cc2)c1N | inconclusive: -38.7%
38 | COc1ccc(-c2nc(-c3cccs3)c(-c3cccs3)[nH]2)cc1OC | inconclusive: -46.4%
39 | CCN(C[C@H]1N[C@@](C)(C(=O)OC)[C@H]2C(=O)N(C)C(=O)[C@@H]12)S(=O)(=O)c1ccc(OC)cc1 | inactive: 8.68%
40 | Cn1nnnc1SCCOc1ccc(C#N)cc1 | inconclusive: -30.8%
41 | COc1cccc(/C=N/NC(=O)NC2CCCCC2)c1O | inconclusive: -38.9%
42 | Cc1c(NC(=S)NC(=O)c2cc3ccccc3o2)cccc1C(=O)O | inactive: 36.7%
43 | Clc1cccc(Nc2nc(N3CCOCC3)nc(N3CCOCC3)n2)c1 | inconclusive: -35.4%
44 | Clc1ccc(N2CCN(/N=C/c3cccnc3)CC2)cc1 | inconclusive: -36.3%

Row | SMILES | activity change
45 | CCCCCOc1ccc(C(C)(O)C(CN2CCOCC2)c2ccccc2)cc1 (stereo unspecified) | inconclusive: -39.8%
46 | COC(=O)C(Cc1ccccc1)NC(=O)c1cc(=O)[nH]c2ccccc12 (stereo unspecified) | active: -103%
47 | Cc1ccc2c(c1)[C@H]1[C@H](CO2)[C@H](c2ccccc2)[C@]2(C)C(=O)N(Cc3ccc(Cl)cc3)CC(=O)N12 | inactive: -17.7%
48 | COc1ccc(-c2cc(C(=O)Nc3cccc(Cl)c3)no2)cc1 | inconclusive: -41.2%
49 | COc1ccc(OC)c(-n2c(SCC(=O)Nc3cccc(S(N)(=O)=O)c3)nc3ccccc3c2=O)c1 | inconclusive: -46.2%
50 | Oc1ccc(Br)cc1CNc1ccccn1 | inconclusive: -37.2%
51 | Cc1c(NS(=O)(=O)c2cccc(C(=O)Nc3ccc(SC(F)F)cc3)c2)c(=O)n(-c2ccccc2)n1C | inconclusive: -36.6%
52 | CCC(C)Nc1c2c(nc3c(-c4ccccc4)c(C)nn13)CCC2 (stereo unspecified) | inconclusive: -49.7%
53 | COc1ccc(NC(=O)CSc2nnc(-c3cccnc3)o2)c(OC)c1 | inactive: -1.39%
54 | O=C(Nc1ccc(Br)cc1)c1cccc(S(=O)(=O)Nc2cnc3ccccc3c2)c1 | inconclusive: -39.9%
55 | CC(Oc1ccccc1)C(=O)N1CCN=C1SCc1ccccc1 (stereo unspecified) | inconclusive: -34.3%
56 | CN1CCCC(n2nc(Cc3ccc(Cl)cc3)c3ccccc3c2=O)CC1 (stereo unspecified) | inconclusive: -41.6%
57 | Cc1ccc(CN2CCC(c3cc(-c4ccc(Cl)cc4)n[nH]3)CC2)cc1 | active: -96.9%
58 | Cc1cc(C)nc(NC(=O)/C=C/c2ccccc2Cl)n1 | inconclusive: -30.4%
59 | O=C(C[C@H]1C/C=C\CC[C@H](Cc2ccc(F)cc2)C(=O)O[C@H](c2ccccc2)CNC1=O)N[C@H](CO)Cc1ccccc1 | inactive: 0%
60 | S=c1[nH]cnc2scc(-c3ccccc3)c12 | inactive: 12.8%
61 | CC(=O)Oc1ccc2c(=O)oc(-c3ccc([N+](=O)[O-])cc3)nc2c1 | inconclusive: -38.8%
62 | CCC/C(O)=C1\C(=O)CC(c2ccccc2)CC1=NCCc1c(C)[nH]c2ccccc12 (stereo unspecified) | inconclusive: -41.7%
63 | CC(C)Sc1nnc(CNC(=O)C23CC4CC(CC(C4)C2)C3)n1Cc1ccccc1 | inconclusive: -40.7%
64 | O=C(COc1ccccc1O)NNc1ccccc1 | inactive: 7.56%
65 | COc1ccc(CCN(CC(=O)NC(C)(C)C)C(=O)Cn2nnc(-c3ccc(C)o3)n2)cc1OC | inconclusive: -30.3%
66 | Cn1ccc2c(-c3ccc4c(c3)OCCO4)cc3c(c21)C1CCC3O1 (stereo unspecified) | inactive: 10.8%

Row | SMILES | activity change
67 | CCc1nc2ccc(C(=O)NCc3ccc4c(c3)OCO4)cn2c1N(CCC(C)C)CCN(C)C | inactive: -22.5%
68 | O=C(NCCCc1ccccc1)c1cc(COc2ccc(F)cc2Cl)on1 | inconclusive: -47.6%
69 | CCOc1cc(CNCc2cc(OC)cc(OC)c2)ccc1OC | active: -58.2%
70 | Cc1ccc(CC(CC(=O)O)C(=O)NCc2ccccc2)cc1 (stereo unspecified) | inactive: 19.4%
71 | Cc1nc2c(OCCC3CCCCC3)cccn2c1N(C)C(=O)CCC1CCCC1 | active: -53%
72 | CC1CCN(S(=O)(=O)c2ccc3c(c2)N(CC(=O)NCCCN(Cc2ccccc2)C(C)C)C(=O)CO3)CC1 | inconclusive: -42%
73 | Nc1cc(-c2ccc(Br)cc2)nc2cc(-c3ccccc3)nn12 | inconclusive: -35.1%
74 | Cc1ccc(-n2cc(CN(C)Cc3ncc[nH]3)c(-c3cccc(C)c3)n2)cc1 | active: -81.4%
75 | Oc1ccc(/C=N/N(Cc2ccccc2)c2ccccc2)c(O)c1O | inconclusive: -35.8%
76 | COc1cccc(C(=O)N(Cc2cc3cc(C)ccc3[nH]c2=O)CC2CCCO2)c1 (stereo unspecified) | inconclusive: -32.6%
77 | CC1CCN(c2nc3c(c(=O)[nH]c(=O)n3C)n2CCSc2ncccn2)CC1 | inconclusive: -32.5%
78 | COc1cc(-c2coc3c(C(=O)NCc4ccccc4)cccc23)ccc1O | inconclusive: -36%
79 | CCCc1nc(SCC(=O)Nc2cc(C)on2)c2ccccc2n1 | inconclusive: -31.2%
80 | O=C(Cc1ccccc1)Nc1ccccc1N1CCN(c2ccccc2)CC1 | inconclusive: -43.7%
81 | COc1cc(SC)ccc1C(=O)N(CC(=O)Nc1ccccc1Br)Cc1ccco1 | inconclusive: -37.1%
82 | CC(C)(C)CC(C)(C)NC(=O)CSCC(=O)Nc1ccc2ccccc2c1 | active: -94.3%
83 | O=C(C(Cl)Cl)N1CCN(c2ccccn2)CC1 | inactive: 1.16%
84 | Clc1ccc(-c2cc(-c3nnc4n3CCCCC4)c3ccccc3n2)cc1 | inconclusive: -49%
85 | O=C(NCC(F)(F)F)c1ccc2sc([C@H]3C[C@H](O)[C@@H](CO)O3)nc2c1 | inactive: 18.4%
86 | CC(C)(C)n1cnc2cc(NCc3ccccc3O)ccc21 | inconclusive: -42.3%
